# Results as given in the supplement of paper PMC3334620.
# In all, about 33,000 sequences were measured (“E-score (-0.5 to 0.5)”: median about -0.041, highest 2% from about 0.37 on). The list shows a part of the results.
# Target: T1, Ecm22 (UniProt Q05958)
# T1 sequence: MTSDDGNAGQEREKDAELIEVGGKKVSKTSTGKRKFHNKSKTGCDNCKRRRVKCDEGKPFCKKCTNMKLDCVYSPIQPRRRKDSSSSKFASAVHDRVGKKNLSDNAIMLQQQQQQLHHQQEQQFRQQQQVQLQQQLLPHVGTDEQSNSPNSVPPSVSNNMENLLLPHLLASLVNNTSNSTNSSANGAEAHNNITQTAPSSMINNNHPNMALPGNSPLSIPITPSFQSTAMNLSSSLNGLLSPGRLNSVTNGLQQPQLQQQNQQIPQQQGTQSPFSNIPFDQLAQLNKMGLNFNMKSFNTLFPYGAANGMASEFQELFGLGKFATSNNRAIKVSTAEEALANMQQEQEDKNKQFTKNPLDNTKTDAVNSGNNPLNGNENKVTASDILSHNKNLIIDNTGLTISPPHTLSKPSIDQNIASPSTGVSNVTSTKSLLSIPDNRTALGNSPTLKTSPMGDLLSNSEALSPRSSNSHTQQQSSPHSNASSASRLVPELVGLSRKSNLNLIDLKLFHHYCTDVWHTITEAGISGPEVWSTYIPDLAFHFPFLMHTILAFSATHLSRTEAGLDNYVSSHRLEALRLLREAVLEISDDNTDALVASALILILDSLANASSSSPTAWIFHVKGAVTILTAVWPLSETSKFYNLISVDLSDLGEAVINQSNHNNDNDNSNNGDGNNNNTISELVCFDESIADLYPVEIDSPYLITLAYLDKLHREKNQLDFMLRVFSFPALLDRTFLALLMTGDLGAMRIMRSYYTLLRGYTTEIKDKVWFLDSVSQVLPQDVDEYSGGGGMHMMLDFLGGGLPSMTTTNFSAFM
# Test: PBM E-score (8-mer binding enrichment) (E-score (-0.5 to 0.5)); higher = stronger / more preferred TF binding; most listed sequences are background and not binding sites
# Conditions: protein concentration: 200 nM; construct: GST-full length
# In short: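 Detection of bound protein used fluorescent anti-GST, with scans normalised by masliner. The proteins were GST-tagged yeast transcription factors applied at about 100-200 nM to universal all-10-mer Agilent arrays made double-stranded by primer extension. Each ungapped eight-base word, pooled with its reverse complement, was scored with an E-score from the Universal PBM Analysis Suite.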
row,Sequence,PBM E-score
1,TAGCGGCA,-0.146
2,GGGAGGAA,-0.0599
3,AAACCAGC,-0.133
4,GAAGTGGA,-0.115
5,ACCGGCGA,0.0117
6,CATATAGG,-0.093
7,TACTGACA,0.0366
8,ATAAGCAC,0.103
9,CTCTATAA,-0.2
10,ACTGTGAT,-0.04
11,AAACTATC,0.108
12,GGCCAATA,-0.0207
13,ACATCATC,-0.0939
14,CTGGGTGC,-0.0504
15,AAACCGTG,-0.0465
16,ACTTTTGG,-0.141
17,TATCCATA,0.181
18,GCCGCATA,0.225
19,CCGTTACA,0.0242
20,CCTGCAGC,-0.066
21,AGTTAGTG,-0.15
22,AAATAGAT,0.121

row,Sequence,PBM E-score
1,TATCGGGA,0.0692
2,TGCCAACA,0.0274
3,TGTAGGAA,-0.00384
4,ACATCCCT,-0.128
5,ATGTCCTA,-0.0731
6,AAATACCG,0.176
7,AAGAGCTG,-0.264
8,AGGTTGAA,0.00678
9,CACGTCCC,-0.184
10,CGCCACAG,-0.239
11,TTATAGAA,-0.0153
12,AGGCCCAA,-0.0795
13,AGCAGTCA,-0.0771
14,ATTGAAAG,-0.225
15,CCGAAATA,0.239
16,CCTGTTTC,-0.102
17,CATTCCGA,0.0438
18,CTGATAGC,-0.0763
19,GGCTCATA,-0.11
20,TACGACGA,0.469
21,CAAATCAG,-0.194
22,GGGGCCCA,-0.178

row,Sequence,PBM E-score
1,ACCCCAAA,0.0197
2,AGCACCTC,-0.0692
3,CCTAAATA,-0.041
4,AACAAGGG,-0.00652
5,ATATTTCA,0.0426
6,CGCATCAA,0.0609
7,AAAATGGT,0.0341
8,AAGATCTG,-0.153
9,CTCCCAAA,-0.0526
10,AAACAAAC,0.0233
11,ATTGACCC,0.0352
12,ACTCAACG,0.106
13,ATAGGTGG,-0.0501
14,ACTTAAGG,-0.138
15,ACGGCGCT,0.129
16,ATATACAA,0.0401
17,GATCACAA,-0.0118
18,TATCAAAA,-0.138
19,CTCGTCAC,0.0816
20,ACTACATC,-0.0932
21,CAACTTTA,0.105
22,GAAACGGC,0.2

row,Sequence,PBM E-score
1,CCAAGCAC,-0.0787
2,GCCCGAGA,0.00137
3,GGACGAAC,0.111
4,AAATAATG,0.108
5,CCGAATAC,0.253
6,GCTAAGCA,-0.173
7,CGTTGTAA,0.0953
8,ACCCTGGC,-0.177
9,GTAAGATA,0.137
10,CACATTGA,-0.00041
11,AACGTAGT,0.111
12,ATATGGTA,0.186
13,GGTGTTAA,0.0977
14,GCCGGTCA,-0.223
15,CGAGTTAC,0.253
16,ACCATTGC,-0.00099
17,GCGAAACA,0.0787
18,CTCACGAG,0.0975
19,CTCAATTC,0.132
20,AGAGGTTC,-0.105
